Measured values: the supplement of paper PMC11880418
Counter-ions that a name gives are not always drawn. Some of the results follow. The data scatter; read single values as rough.

Experiments:
Experiment in all cases: ALDHbr (CSC) cell proportion score relative to DMSO vehicle (ratio to DMSO); breast (SUM159) / gastric (MKN45) / pancreatic (PANC1) / colon cancer lines; ALDHbr cells have high ALDH activity and are rich in cancer stem cells (CSC); higher = more CSC (ALDHbr) cells remaining
Details in all cases: 10 µM; 72 h
MKN45 = system: MKN45
PANC1 = system: PANC1
SUM159 = system: SUM159
T84 = system: T84
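Further: High-content imaging of ALDEFLUOR-stained cells with Hoechst-labelled nuclei in 384-well plates, triplicate wells, scored as Z-score against 0.1% DMSO vehicle, negative meaning fewer ALDHbr cells.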

Compound | ALDHbr (MKN45) | ALDHbr (PANC1) | ALDHbr (SUM159) | ALDHbr (T84)
COc1ccc(C(Cl)=C(c2ccc(OC)cc2)c2ccc(OC)cc2)cc1 [Chlorotrianisene] | 0.463 | 1.2 | 1.07 | 0.864
O=C1CN2Cc3c(ccc(Cl)c3Cl)N=C2N1 [Anagrelide] | 0.898 | 0.657 | 1 | 0.948
CO[C@@]1(NC(=O)C2SC(=C(C(N)=O)C(=O)O)S2)C(=O)N2C(C(=O)O)=C(CSc3nnnn3C)CS[C@@H]21 (some centres not stated) [Cefotetan] | 0.998 | 1.05 | 0.804 | 1.02
COC(=O)[C@@H]1[C@H]2C[C@H]3c4[nH]c5ccccc5c4CCN3C[C@@H]2CC[C@@H]1O [Yohimbine hydrochloride] | 1.35 | 0.956 | 0.856 | 0.944
Clc1ccc(C(Cn2ccnc2)OCc2ccsc2Cl)c(Cl)c1 (configuration not stated) [Tioconazole] | 1.15 | 1 | 0.812 | 0.731
O=C1c2cccc(O)c2C(=O)c2c(O)cccc21 [1,8-Dihydroxyanthraquinone] | 0.385 | 0.817 | 3.25 | 0.391
NS(=O)(=O)c1cc(Cl)c(Cl)c(S(N)(=O)=O)c1 [Dichlorphenamide] | 0.875 | 0.909 | 1.05 | 0.953
NC[C@@H]1O[C@@H](O[C@H]2[C@H](O)[C@@H](O[C@H]3O[C@H](CO)[C@@H](O)[C@H](N)[C@H]3O)[C@H](N)C[C@@H]2N)[C@@H](O)[C@H](O)[C@H]1O [Kanamycin A sulfate] | 0.973 | 0.958 | 1.24 | 1.05
CCN1CCCC(OC(=O)C(c2ccccc2)c2ccccc2)C1 (configuration not stated) [Piperidolate hydrochloride] | 1.01 | 0.985 | 0.843 | 0.999
Cc1cc(O)c(C(=O)N[C@@H](C(=O)N[C@@H]2C(=O)N3C(C(=O)O)=C(CSc4nnnn4C)CS[C@H]23)c2ccc(O)cc2)cn1 [Cefpiramide] | 1.24 | 0.864 | 0.765 | 0.977
CN1CCN(CCCN2c3ccccc3Sc3ccc(S(=O)(=O)N(C)C)cc32)CC1 [Thioproperazine dimesylate] | 0.616 | 0.686 | 0.359 | 0.243
c1ccc(C2CN3CCSC3=N2)cc1 (configuration not stated) [Tetramisole hydrochloride] | 1.12 | 0.951 | 0.957 | 0.814
Cc1ccccc1C(=O)Nc1ccc(C(=O)N2CCCC(O)c3cc(Cl)ccc32)c(C)c1 (configuration not stated) [Tolvaptan] | 1.49 | 0.841 | 1.32 | 1.01
CCN(CC)CCOC(=O)C(c1ccccc1)c1ccccc1 [Adiphenine hydrochloride] | 1.25 | 0.964 | 1.04 | 1.19
NS(=O)(=O)c1cc2c(cc1Cl)N=C(CSCc1ccccc1)NS2(=O)=O [Benzthiazide] | 0.916 | 0.804 | 1.07 | 0.78
CC(C)(C)NC(=O)[C@@H]1C[C@@H]2CCCC[C@@H]2CN1C[C@@H](O)[C@H](Cc1ccccc1)NC(=O)[C@H](CC(N)=O)NC(=O)c1ccc2ccccc2n1 [Saquinavir mesylate] | 0.431 | 0.68 | 0.38 | 0.661
CCCC(C(=O)OCCN(CC)CC)(c1ccccc1)c1ccccc1 [Proadifen hydrochloride] | 0.781 | 0.9 | 0.711 | 0.854
COc1cc(NS(=O)(=O)c2ccc(N)cc2)nc(OC)n1 [Sulfadimethoxine] | 1.03 | 0.941 | 1 | 1.09
